Consider nine molecules from PMC9911399, “Two distinct binding modes provide the RNA-binding protein RbFox with extraordinary sequence specificity”.

Where a chain is given by its changes, count along the chain named. The list shows a part of the results.

First the molecules themselves.
B1: CUCAGUA (DNA:RNA)
RNA: GGGAGACCGGAAUUCAGAUUGUCCCUCAGUAUUAAAUCCCGUCGUAGCCACCA
DNA 1: CAATCTGAATTCCGGTCTCCC
DNA 2: TGGTGGCTACGACGGGATT
B2: AUCUCCA (DNA:RNA)
RNA: B1 RNA with C25A, A28U, G29C, U30C
DNA 1: CAATCTGAATTCCGGTCTCCC
DNA 2: TGGTGGCTACGACGGGATT
B3: AAAGCGC (DNA:RNA)
RNA: GGGAGACCGGAAUUCAGAUUGUCCAAAGCGCUUAAAUCCCGUCGUAGCCACCA
DNA 1: CAATCTGAATTCCGGTCTCCC
DNA 2: TGGTGGCTACGACGGGATT
B4: GGUGUAU (DNA:RNA)
RNA: B3 RNA with A25G, A26G, A27U, C29U, G30A, C31U
DNA 1: CAATCTGAATTCCGGTCTCCC
DNA 2: TGGTGGCTACGACGGGATT
B5: CACGUUC (DNA:RNA)
RNA: B3 RNA with A25C, A27C, C29U, G30U
DNA 1: CAATCTGAATTCCGGTCTCCC
DNA 2: TGGTGGCTACGACGGGATT
B6: CGGACCU (DNA:RNA)
RNA: B1 RNA with U26G, C27G, G29C, U30C, A31U
DNA 1: CAATCTGAATTCCGGTCTCCC
DNA 2: TGGTGGCTACGACGGGATT
B7: GCCCGUU (DNA:RNA)
RNA: B1 RNA with C25G, U26C, A28C, A31U
DNA 1: CAATCTGAATTCCGGTCTCCC
DNA 2: TGGTGGCTACGACGGGATT
B8: GCUAUUC (DNA:RNA)
RNA: B1 RNA with C25G, U26C, C27U, G29U, A31C
DNA 1: CAATCTGAATTCCGGTCTCCC
DNA 2: TGGTGGCTACGACGGGATT
B9: GUACCAG (DNA:RNA)
RNA: B3 RNA with A25G, A26U, G28C, G30A, C31G
DNA 1: CAATCTGAATTCCGGTCTCCC
DNA 2: TGGTGGCTACGACGGGATT

This assay deals with T1, RBFOX1 RRM (Homo sapiens, UniProt Q9NWB1 109-208).
T1 sequence: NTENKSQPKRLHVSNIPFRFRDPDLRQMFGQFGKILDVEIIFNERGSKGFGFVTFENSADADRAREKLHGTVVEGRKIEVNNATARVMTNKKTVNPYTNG
Briefly: EMSA; HiTS-Eq, 1 nM pool, 10 min; buffer printed only for the single-RNA assays: 10 mM Tris pH 7.5, 150 mM NaCl, 3.4 mM EDTA, 0.001% NP-40, 30 C. The following applies: tags: His6 N-terminal (pET28a); label: 5' 32P. The method in brief: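 Purified RbFox RRM (wild type or mutant) was equilibrated for 10 min in 50 µL with 1 nM of a 5′-radiolabelled pool of RNA with 7 randomized nucleotides, its flanks annealed to DNA oligonucleotides, across increasing protein concentrations. Free RNA was separated by 8% native PAGE, excised, reverse-transcribed, PCR-barcoded and sequenced on an Illumina HiSeq 2500. Relative association constants came from read-count changes of each variant against the control reaction, normalised to the cognate motif.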
For orientation: A gel shift assay detects complexes by their altered migration in electrophoresis.
B1: the binding signal is 0.00379 KA relative to UGCAUGU. For the molecule B2, the binding signal was 0.00423 KA relative to UGCAUGU. Then B3, with 0.00526 KA relative to UGCAUGU; and B4, with 0.00821 KA relative to UGCAUGU; and B5, with 0.00687 KA relative to UGCAUGU. Regarding B6, the binding signal was 0.0174 KA relative to UGCAUGU. Then B7, with 0.0139 KA relative to UGCAUGU. Then B8, with 0.00993 KA relative to UGCAUGU; and B9, with 0.00651 KA relative to UGCAUGU.
